For orientation: % Inhibition means the relative decrease from the control value, in per cent.

The text below walks through data of ChEMBL document CHEMBL4888484, “Replenishing the malaria drug discovery pipeline: Screening and hit evaluation of the MMV Hit Generation Library 1 (HGL1) against asexual blood stage Plasmodium falciparum ,using a nano luciferase reporter read-out” (2022).

SMILES strings stand for the structures. About 540 (0.36%) of roughly 150,000 compounds showed an effect of 50% or more. The list shows a part of the results.

This experiment concerns Plasmodium falciparum. The experiment is described as follows: Primary screen in NF54 nanoGlo assay, in single point, at 2uM, 72h; a lower Z score goes with more inhibition. Format: functional, Erythrocyte. The settings on record: timepoint 72 hour.
As for `CCOC1(C)CCN(c2cncc(C#N)n2)CC1`, the “% Inhibition” value is recorded as 1% and the Z score is recorded as -0.13.
Taken in the same sequence, the figures for `Cc1ccc(S(=O)(=O)N2CCC3(CC2)CCC(O)(CN2CCCC2)CC3)cc1` were -4% and 0.42.
Taken in the same sequence, the figures for `Cc1cc(NC(=O)NCCc2c[nH]cn2)n(CC(C)C)n1` were 1% and -0.21.
`COc1ccc(-c2nn(-c3ccccc3F)cc2CN2CCC[C@H]2C(N)=O)cc1`: the “% Inhibition” value is on record as -11% and the Z score is reported as 1.26.
With `COc1ccc(Cc2noc([C@@H]3COCCN3C(C)=O)n2)cc1OC`, the “% Inhibition” value was -12% and the Z score is reported as 1.35.
Taken in the same sequence, the figures for `O=C(O)c1ccc(CN2CCC[C@H]2Cn2cc(C3CC3)nn2)cc1Cl` were 1% and -0.29.
Taken in the same sequence, the figures for `Cc1ncn(Cc2ccc(Cn3cnc(C)c3C)cc2)c1C` were -4% and 0.65.
Taken in the same sequence, the figures for `CC1=C(C(=O)N2C[C@H]3CC=CC[C@H]3C2)C(C)NC(=O)N1` (stereo partly specified) were -13% and 2.39.
`Cn1cccc1CN[C@@H](CC(N)=O)C1CCCCC1`: the “% Inhibition” value is -13% and the Z score came out at 1.36.
Taken in the same sequence, the figures for `CCOCCCNC(=O)c1c(C)noc1-c1ccncc1` were -3% and 0.67.
On to `O=C(NCc1cccnc1)[C@H]1CCCN(c2nc3cccnc3s2)C1`, for which the “% Inhibition” value is reported as -17% and the Z score worked out at 1.49.
Taken in the same sequence, the figures for `CC(C)(C)n1cc(NC(=O)[C@@H]2COCCN2C2CCCC2)cn1` were -10% and 1.27.
Taken in the same sequence, the figures for `COCCn1c(C)cnc1CCNC(=O)COC` were -1% and 0.1.
Taken in the same sequence, the figures for `Cc1ccsc1C(=O)N1CC[C@@]2(CCCN(CC3CC3)C2=O)C1` were 6% and -1.22.
In the case of `CC(C)(C(=O)N1CCC(C)(C)S(=O)(=O)CC1)C1CCOCC1`, the “% Inhibition” value was -9% and the Z score is recorded as 0.94.
Taken in the same sequence, the figures for `CCOCCCNC(=O)[C@H]1CCCN(c2nccnc2Oc2ccc(C)cc2)C1` were -5% and 0.95.
Taken in the same sequence, the figures for `Cc1ccccc1C(=O)N1CC=C(C(=O)N2CCCC2)CC1` were -5% and 0.87.
Consider `Cc1ccc(CN2C(=O)OC(c3cccc(NC(=O)c4cccc(Cl)c4)c3)C2C(=O)NCc2ccco2)cc1` (stereo unspecified), for which the “% Inhibition” value was -11% and the Z score was found to be 1.07.
Taken in the same sequence, the figures for `O=C(c1ccoc1Cl)N1CCCC1C1CCCC1O` (stereo unspecified) were -6% and 0.58.
Turning to `CN1C[C@@H]2CCC[C@H]1CN(C(=O)CCc1cn[nH]c1)C2`, the “% Inhibition” value turned out to be 3% and the Z score is on record as -0.46.
Taken in the same sequence, the figures for `Cc1cccc(NC(=O)N(Cc2ccncc2)C2CC2)c1C` were -7% and 0.58.
As to `O=C(NC1CCCC1)C(c1ccccc1)c1ccccc1`, the “% Inhibition” value is given as -1% and the Z score turned out to be 0.15.
Taken in the same sequence, the figures for `Cc1c(Cl)cccc1NC(=O)CCNC(=O)NCc1ccco1` were 2% and -0.23.
Taken in the same sequence, the figures for `CC(C)=CCN1C[C@@H]2CC[C@H]1CN(C(=O)c1ccc(-c3ccccc3)[nH]c1=O)C2` were -10% and 1.97.
Taken in the same sequence, the figures for `CCn1cc(-c2cc(C(F)(F)F)nc(N3CCCC3)n2)cn1` were 36% and -0.9.
With `COc1ccc(OCc2nc(C(=O)NCc3ccccc3C)co2)cc1`, the “% Inhibition” value was -7% and the Z score came out at 1.36.
For `Cc1cc(Cl)cc2c1NC(=O)C21NC(Cc2c[nH]c3ccccc23)C2C(=O)N(c3ccc(F)c(Cl)c3)C(=O)C21` (stereo unspecified), the “% Inhibition” value is reported as -5% and the Z score was found to be 0.97.
Taken in the same sequence, the figures for `C#CCCN1CCN(C(=O)[C@@H](C)CC(=O)c2ccccc2F)CC1` were -10% and 1.45.
Taken in the same sequence, the figures for `COc1ccc(CC(=O)Nc2nnc(-c3cc4cccc(OC)c4o3)o2)cc1` were -19% and 2.2.
Taken in the same sequence, the figures for `CCc1ccc(C(=O)N2CCCN(c3nc(CC(C)C)nc4onc(-c5ccc6ccccc6c5)c34)CC2)cc1` were 5% and -0.99.
Take `O=C1CCC[C@@H]2CN(Cc3ccc4c(c3)CCO4)C[C@@H]2N1`: the “% Inhibition” value is listed as 33% and the Z score was -3.79.
Taken in the same sequence, the figures for `C[C@@H](C(=O)N(C)c1ccccc1Oc1ccccc1)n1cncn1` were -5% and 0.69.
In the case of `CC(C)S(=O)(=O)CC(=O)N(C)c1ccc(Cl)cn1`, the “% Inhibition” value turned out to be 3% and the Z score is reported as -0.62.
For `COc1ccnc(N[C@H]2CCc3ncnn3C2)n1`, the “% Inhibition” value was -6% and the Z score is reported as 1.06.
Taken in the same sequence, the figures for `CC(C)c1cccc(CN(C)CCc2ccncc2)n1` were -14% and 1.46.
Taken in the same sequence, the figures for `CC(C)c1nc(CCNc2ncnc3c2CCNC3)no1` were 11% and -1.38.
Taken in the same sequence, the figures for `Cc1ccc(OC[C@H]2CCC(=O)N2)nc1` were 4% and -0.58.
With `Cc1cnccc1CNC(=O)N[C@@H]1C=C[C@H](CO)C1`, the “% Inhibition” value is -36% and the Z score is 4.28.
For `CC(C)c1csc(C(=O)N[C@@H]2C[C@H]3C(=O)NCC(=O)N3C2)n1`, the “% Inhibition” value is -12% and the Z score was determined as 1.77.
Taken in the same sequence, the figures for `CCCC(=O)N1CCCN(c2nc(-c3cccc(OC)c3)no2)CC1` were -9% and 1.14.
Taken in the same sequence, the figures for `CC(C)(C)CNc1ccc(C(N)=O)c(Cl)c1` were 4% and -0.61.
Taken in the same sequence, the figures for `COc1ccc2c(c1)c(CN1CCC[C@H](OCc3noc(C)n3)C1)cn2C` were -5% and 0.71.
For `Cn1nc(NC(=O)c2ccccc2)c2c1CCN(C(=O)c1ccsc1)C2`, the “% Inhibition” value is -16% and the Z score is listed as 1.41.
